Among all 310,000 compounds or so, about 14,000 (4.5%) showed an effect of 50% or more. The effect is printed as a negative number. Some of the results follow.

The values that follow come from paper PMC4336329 (PLoS ONE, 2015).
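Also: peak tail current of the secondary pulse compared with the same well before compound.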

In the assay the target is human ether-à-go-go-related gene (hERG) potassium channel (human, UniProt Q12809). Description: primary screen, population patch clamp on CHO cells stably expressing hERG.
Chain of human ether-à-go-go-related gene (hERG) potassium channel (Q12809 whole entry, looked up): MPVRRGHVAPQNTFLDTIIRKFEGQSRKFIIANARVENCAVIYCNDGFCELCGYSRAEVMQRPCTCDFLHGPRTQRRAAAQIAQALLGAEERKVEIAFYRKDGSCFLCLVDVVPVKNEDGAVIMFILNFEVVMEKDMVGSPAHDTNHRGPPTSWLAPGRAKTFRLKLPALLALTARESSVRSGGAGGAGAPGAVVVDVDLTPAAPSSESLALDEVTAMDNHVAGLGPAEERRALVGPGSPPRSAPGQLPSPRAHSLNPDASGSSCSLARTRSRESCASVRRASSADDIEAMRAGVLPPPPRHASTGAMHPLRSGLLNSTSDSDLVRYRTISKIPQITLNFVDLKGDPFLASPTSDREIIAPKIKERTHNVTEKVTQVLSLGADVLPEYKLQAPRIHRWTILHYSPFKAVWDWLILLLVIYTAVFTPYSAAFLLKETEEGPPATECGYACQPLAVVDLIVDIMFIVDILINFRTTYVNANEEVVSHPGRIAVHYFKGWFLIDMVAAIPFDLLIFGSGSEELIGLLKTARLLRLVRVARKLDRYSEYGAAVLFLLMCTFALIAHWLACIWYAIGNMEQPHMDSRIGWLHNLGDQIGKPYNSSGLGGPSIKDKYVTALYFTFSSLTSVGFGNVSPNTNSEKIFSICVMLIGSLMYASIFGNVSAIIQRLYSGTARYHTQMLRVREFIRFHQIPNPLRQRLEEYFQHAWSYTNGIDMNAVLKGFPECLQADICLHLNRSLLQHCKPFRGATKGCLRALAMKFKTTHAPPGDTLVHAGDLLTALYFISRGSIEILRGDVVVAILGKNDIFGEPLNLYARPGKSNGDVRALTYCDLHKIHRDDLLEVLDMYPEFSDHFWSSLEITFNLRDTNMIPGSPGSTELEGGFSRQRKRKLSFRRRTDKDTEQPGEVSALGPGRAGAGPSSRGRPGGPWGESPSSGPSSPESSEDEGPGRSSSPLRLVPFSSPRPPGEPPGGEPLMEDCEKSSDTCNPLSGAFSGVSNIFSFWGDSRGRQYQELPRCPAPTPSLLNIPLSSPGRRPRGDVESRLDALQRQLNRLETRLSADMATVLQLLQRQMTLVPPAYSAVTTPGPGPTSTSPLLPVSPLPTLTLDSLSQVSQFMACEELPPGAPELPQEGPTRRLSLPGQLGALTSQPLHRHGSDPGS
Regarding `O=C1CC(=O)NC(SCC(=O)Nc2ccccc2[N+](=O)[O-])=N1`, the “hERG current change (%, negative = inhibition) at 10uM” value stood at 15.4%. The same measure for `CCOc1ccccc1NC(=S)N(CCC(C)C)C1CCN(C(C)=O)CC1`: 0.567%; for `CN(CC(=O)Nc1ccccc1Br)C(=O)CNC(=O)c1cccs1`: -7.41%; for `Cc1ccccc1CSc1nc2n(n1)C(c1cccs1)C1=C(CCCC1=O)N2` (centres unmarked): 0.577%. The same measure for `Cc1ccc(-c2noc(CN3CCN(c4ccccc4F)CC3)n2)cc1`: 8.71%; for `CCCCc1ccc(CC2S/C(=C(\C#N)C(=O)N3CCOCC3)N(c3ccccc3)C2=O)cc1` (centres unmarked): -12.1%. On to `CC(=O)NCCCC(=O)NC(CCC(=O)OCc1ccccc1)C(=O)OCc1ccccc1` (centres unmarked), for which the “hERG current change (%, negative = inhibition) at 10uM” value is given as -13.7%.

With `CN(CC(=O)N1CCCc2c1c(=O)oc1ccc(O)cc21)Cc1ccccc1`, the “hERG current change (%, negative = inhibition) at 10uM” value was -67.4%.

As for `O=C(/C=C/Nc1ccccc1F)c1cccs1`, the “hERG current change (%, negative = inhibition) at 10uM” value was 1.08%.

Take `Cn1c(=O)c(-c2ccccc2[N+](=O)[O-])c(Cl)c2ccccc21`: the “hERG current change (%, negative = inhibition) at 10uM” value is given as -5.62%. As for `Cc1nnc2n1CCCCC2`, the figure is 20.6%; as for `COC(=O)c1sccc1NC(=S)Nc1cc(OC)ccc1OC`, 30.4%; as for `Cc1cnc(C(=O)OCC(=O)Nc2cc(Cl)cc(Cl)c2)cn1`, 19.5%.

For the compound `O=C(c1cccs1)N1CCN(c2ccc([N+](=O)[O-])cc2F)CC1`, the “hERG current change (%, negative = inhibition) at 10uM” value is -56.8%.

Consider `O=C(CNC(=O)C12CC3CC(CC(C3)C1)C2)NC1=NCCS1`, for which the “hERG current change (%, negative = inhibition) at 10uM” value was found to be 6.83%. Turning to `CSCC[C@H](N)C(=O)N1CCC(C(=O)N[C@@H](C)C(=O)NCc2ccc(F)cc2)CC1`, the “hERG current change (%, negative = inhibition) at 10uM” value turned out to be 3.55%.

Regarding `CCOC(=O)CON1C(=O)C(=O)N(OCC(=O)OCC)[C@H]2CCCC[C@H]21`, the “hERG current change (%, negative = inhibition) at 10uM” value was determined as 12.2%. The same measure for `N#Cc1cc(-c2ccccc2)cnc1Cl`: -2.98%. As for `CCOC(=O)C(C)Oc1cccc2c(=O)n(CC(=O)N3CCc4ccccc43)ccc12` (centres unmarked), the “hERG current change (%, negative = inhibition) at 10uM” value is -9.19%. On to `O=[N+]([O-])c1cccc(C(=S)N2CCN(c3ccc(F)cc3)CC2)c1`, for which the “hERG current change (%, negative = inhibition) at 10uM” value was -15.9%. Consider `Cc1ccc(CCNC(=O)C2CCC(CNc3c(N4CCCC4)c(=O)c3=O)CC2)cc1` (centres unmarked), for which the “hERG current change (%, negative = inhibition) at 10uM” value was determined as 15.1%. Consider `O=C(C1=NN[C@@H]2C(=O)N(c3cccc(F)c3)C(=O)[C@H]12)c1cnccn1`, for which the “hERG current change (%, negative = inhibition) at 10uM” value was found to be 6.16%. The same measure for `COCC(C)N=C1NN=C(c2cc(C)n(Cc3ccccc3Cl)c2C)CS1` (centres unmarked): -9.9%; for `COc1ccc(S(=O)(=O)NCc2csc(-c3cccnc3)n2)cc1`: -1.58%. The same measure for `CCCCCC1CC(CC/C(C)=N/NC(N)=O)C(=O)O1` (centres unmarked): -23.2%; for `C=CCn1c(SCC(=O)NC2CCCCC2)nnc1C1CCCCC1`: -1.34%. As for `O=C(NCCN1CCOCC1)c1ccc2c(c1)N(Cc1ccc(F)cc1)C(=O)c1ccccc1S2(=O)=O`, the figure is 0.647%; as for `COC(=O)c1ccccc1NC(=O)c1ccc2c(c1)OCCO2`, 1.86%. For the compound `O=C(CNC(=O)c1ccc(Cl)c([N+](=O)[O-])c1)OCN1C(=O)c2ccccc2C1=O`, the “hERG current change (%, negative = inhibition) at 10uM” value was 13.5%. Turning to `O=C(Nc1cccc(Cl)c1N1CCCC1)c1cccc(-c2cc3ccccc3oc2=O)c1`, the “hERG current change (%, negative = inhibition) at 10uM” value is given as -6.92%.

For `CCOC(=O)C1SC2(C(F)(F)F)CC1(O)c1c(C)cc(C)nc1O2` (centres unmarked), the “hERG current change (%, negative = inhibition) at 10uM” value was determined as 5.49%. Regarding `Cc1ccc(C)n1-c1ccc(NC(=O)c2ccccc2)cc1`, the “hERG current change (%, negative = inhibition) at 10uM” value is reported as -2.45%. `CC(C)O.O=C(O)c1cc(S(=O)(=O)Nc2ccc(N3CCCCC3)cc2)ccc1Cl`: the “hERG current change (%, negative = inhibition) at 10uM” value was 12.3%. As for `CCCn1nc(C(=O)Nc2nc(-c3ccccn3)cs2)c2ccccc2c1=O`, the “hERG current change (%, negative = inhibition) at 10uM” value was found to be 0.993%. As for `Cc1ccc(-c2nc(N)sc2CC(=O)OCC(=O)NCCC(C)C)cc1`, the “hERG current change (%, negative = inhibition) at 10uM” value is listed as -11.9%. `COc1ccc(N2CCN(c3ccc(S(=O)(=O)N(C(C)C)C(C)C)cn3)CC2)cc1`: the “hERG current change (%, negative = inhibition) at 10uM” value stood at 25.5%. Consider `COc1ccccc1CNC(=O)c1cccc2c1C(=O)N(Cc1cccnc1)C2`, for which the “hERG current change (%, negative = inhibition) at 10uM” value was -70.1%. As for `COc1ccccc1/C=C(/C#N)C(=O)O`, the “hERG current change (%, negative = inhibition) at 10uM” value came to 18.5%.

As for `Cc1cc(C)cc(C(=O)NC(CC(N)=O)c2ccc(NCC3CC3)c([N+](=O)[O-])c2)c1` (centres unmarked), the “hERG current change (%, negative = inhibition) at 10uM” value is reported as -30.4%. The same measure for `Cc1sc2ncnc(SCC(=O)Nc3ncccc3O)c2c1C`: -2.81%.

For the compound `CC(C)c1ccccc1OCCNC(=O)c1cncc(Br)c1`, the “hERG current change (%, negative = inhibition) at 10uM” value is on record as -60.6%.

Regarding `CC(=O)Nc1cc(NC(C)=O)ncn1`, the “hERG current change (%, negative = inhibition) at 10uM” value is listed as 11.8%. Turning to `CC(=O)Nc1ccccc1-c1nn[nH]n1`, the “hERG current change (%, negative = inhibition) at 10uM” value is given as 0.73%.

With `CC(C)NCC(O)c1ccc2ccccc2c1.Cl` (centres unmarked), the “hERG current change (%, negative = inhibition) at 10uM” value came out at 2.06%.
